# Laboratory results taken from the BET-seq Pho4 binding data (Le et al. 2018).
# This is one part of the list. These are noisy estimates, calculated here from bound and input reads.
# Biological target: T1, Pho4 (S. cerevisiae) (UniProt P07270)
# T1 sequence: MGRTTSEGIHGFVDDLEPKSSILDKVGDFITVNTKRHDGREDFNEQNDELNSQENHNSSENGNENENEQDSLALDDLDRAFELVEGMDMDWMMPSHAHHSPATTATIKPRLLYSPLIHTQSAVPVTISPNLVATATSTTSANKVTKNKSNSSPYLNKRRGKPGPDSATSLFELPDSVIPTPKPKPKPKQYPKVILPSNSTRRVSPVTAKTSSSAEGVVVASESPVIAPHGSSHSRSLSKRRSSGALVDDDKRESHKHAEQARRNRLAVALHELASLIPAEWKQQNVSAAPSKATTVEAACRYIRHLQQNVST
# Assay: relative binding free energy (BET-seq); higher = weaker binding
# Settings: reference: library average
row,Sequence,relative binding free energy [kcal/mol]
1,AGTCTCACGTGTGTAT,0.16
2,AGGGGCACGTGTTGAA,-0.09
3,TGGGTCACGTGCGGCC,0.1
4,GGGTACACGTGGGAAT,0.13
5,ATAGTCACGTGGTTAA,0.01
6,ATTTCCACGTGTGAGG,0.07
7,GAGTTCACGTGTGTTA,0.29
8,TAAGACACGTGGGCTG,-0.16
9,ATGGGCACGTGAGGTA,0.08
10,TGGTACACGTGCGGCT,0.01
11,TGAGTCACGTGAGCTG,0.27
12,GGGTGCACGTGAATAT,0.38
13,AGTGCCACGTGGTTTT,-0.2
14,TGCTGCACGTGTGTAG,0.02
15,AAATGCACGTGGGCAT,-0.02
16,ATGGACACGTGGGTGA,-0.16
17,TATACCACGTGTGTGG,-0.06
18,TTGAGCACGTGCGGGC,-0.09
19,ATTTGCACGTGAGTAG,0.16
20,TGTATCACGTGATTCG,0.19
21,ATAAGCACGTGGTGAT,-0.21
22,TTATGCACGTGGGGTT,-0.17
23,TGCTGCACGTGATGTT,0.1
24,TGTCACACGTGTTAAG,0.06
25,CAGTGCACGTGGGGAA,-0.24

row,Sequence,relative binding free energy [kcal/mol]
1,GAGATCACGTGGTATT,0.14
2,CGAGACACGTGGGGTG,-0.15
3,TTTTCCACGTGGTTTT,0.06
4,AATGGCACGTGGATAG,-0.12
5,CGTATCACGTGTTGTA,0.14
6,ATCGGCACGTGGTGAT,-0.23
7,GTGTACACGTGAGGTT,0.24
8,AGGCGCACGTGAGGAG,0.13
9,GAGATCACGTGGGAGT,0.16
10,TCATACACGTGTTTTG,0.1
11,CTTTGCACGTGTGTGT,0.11
12,AGCGGCACGTGTTGCG,-0.15
13,AATTTCACGTGGTATA,0.28
14,CTTCACACGTGGGGGT,-0.02
15,TTGCACACGTGGGGCA,-0.01
16,TTATTCACGTGTAGAG,0.27
17,GGGGGCACGTGTAGGG,-0.15
18,TGTTTCACGTGGACGC,0.34
19,ATGTGCACGTGTTCTT,-0.01
20,CATGGCACGTGGTAAG,-0.09
21,ATTGACACGTGAGCGT,0.02
22,AATGTCACGTGAGGAG,0.21
23,GAAAACACGTGTTGTT,0.03
24,TTTGGCACGTGTAGGT,0.06
25,AGAGTCACGTGTGTCT,0.08

row,Sequence,relative binding free energy [kcal/mol]
1,TATATCACGTGCGATT,0.14
2,GTAGGCACGTGTGTCT,-0.09
3,GACGCCACGTGTGGGG,-0.05
4,TGTATCACGTGGATAT,0.09
5,TGGGTCACGTGACTAG,0.24
6,GCAGGCACGTGGTTAT,-0.16
7,GTTTTCACGTGGAAGT,0.28
8,TTAATCACGTGACGGG,0.25
9,GTCGGCACGTGGGGGC,-0.25
10,GTTCGCACGTGTTAAG,0.1
11,GGTCGCACGTGGAGGT,0.01
12,ATTATCACGTGGATTT,0.17
13,AGAAGCACGTGTGATT,0.15
14,ACGTACACGTGGTTTG,0.05
15,CGCTGCACGTGGCTGG,-0.04
16,AAGTGCACGTGCTGGC,-0.07
17,GCTGGCACGTGAGTTG,0.2
18,TGGGTCACGTGAATCT,0.37
19,CTGTACACGTGTTGTG,0.09
20,TCATTCACGTGTAAGT,0.32
21,GGTTCCACGTGTATGT,0.05
22,TCGTTCACGTGGGAGG,0.15
23,AATCTCACGTGGTTTT,0.27
24,GGGATCACGTGGTGTA,0.2
25,TTTTACACGTGTAGCG,0.15

row,Sequence,relative binding free energy [kcal/mol]
1,GGATTCACGTGATTGA,0.29
2,TAATTCACGTGGAGTG,0.18
3,TGGGGCACGTGCTGGC,-0.17
4,TGTCTCACGTGGCATG,0.13
5,TCCGGCACGTGGGGAT,-0.13
6,TCGGGCACGTGATGTA,0
7,TTAGTCACGTGTTTAG,0.08
8,AATTTCACGTGTTGAA,0.26
9,TTGTTCACGTGTGAAT,0.43
10,GGTATCACGTGGGGAT,0.07
11,TTTAGCACGTGGTGTT,-0.12
12,GGTGTCACGTGGTTGG,0.11
13,TTGGTCACGTGACGCG,0.15
14,GTGTTCACGTGATGCC,0.44
15,GTTGTCACGTGGAGGG,0.1
16,TTATCCACGTGGAAGG,0.15
17,GTCGGCACGTGAGCGG,0.11
18,GCATTCACGTGGCGTG,0.29
19,TATGGCACGTGTATGT,-0.09
20,GGTGTCACGTGAAGAA,0.14
21,CCGGTCACGTGTGGAT,0.17
22,ATGATCACGTGGTGCA,-0.04
23,GATGGCACGTGTGCGG,0.06
24,TGCGACACGTGTTGGT,0.07
25,ATTTACACGTGGAAGA,0.18

row,Sequence,relative binding free energy [kcal/mol]
1,GCGTTCACGTGGTTTC,0.36
2,GAGTACACGTGGTGAA,0.11
3,AATGACACGTGAAGTT,0.26
4,CAGATCACGTGATGTG,0.22
5,AAGTGCACGTGGGAAG,-0.06
6,TTGCTCACGTGATATT,0.28
7,GTGTGCACGTGGCGTG,-0.14
8,ATGTTCACGTGGATCT,0.15
9,ATTACCACGTGGTAAG,0.06
10,ACGGGCACGTGATAGG,-0.05
11,CGGGGCACGTGTGAGC,-0.09
12,ATCTGCACGTGTTCGG,0.04
13,ATGTCCACGTGGGTAT,-0.08
14,ACTGTCACGTGCATGT,0.11
15,ATGGGCACGTGGGAAT,-0.09
16,TTGAACACGTGTGTAA,0.03
17,GGCCGCACGTGGTGAG,-0.09
18,CCTGTCACGTGAGGGG,0.18
19,AATAACACGTGTTGGG,-0.06
20,CTAGGCACGTGGTCGG,-0.28
21,ACGGGCACGTGTGGTG,-0.21
22,CGAGTCACGTGTAAGT,0.31
23,TTCTTCACGTGCAGGG,0.29
24,TTCTTCACGTGTGGAA,0.34
25,TCTGTCACGTGAATGG,0.35

row,Sequence,relative binding free energy [kcal/mol]
1,TATTTCACGTGGCGTC,0.26
2,TGTCACACGTGTGGGG,0.03
3,ATATGCACGTGCTGGT,-0.16
4,AGTTTCACGTGTTGGA,0.36
5,GGATACACGTGGATTG,-0.03
6,TACTTCACGTGTGGGC,0.26
7,AGTGCCACGTGATTTT,0.2
8,TGTCTCACGTGATAGG,0.14
9,GTCGACACGTGGTTTT,0.1
10,TAGTTCACGTGTTATT,0.19
11,AGCGGCACGTGAGTGC,0.19
12,AGGGTCACGTGACGAT,0.24
13,GGGGACACGTGTTTGC,0.06
14,TGTGTCACGTGGGCAG,-0.13
15,GTGTACACGTGTGCGG,0.08
16,AGTTGCACGTGGAGAG,0.04
17,ACAGGCACGTGTTTTT,-0.08
18,TGGCGCACGTGCGCGG,-0.37
19,GGTCTCACGTGGGATA,0.23
20,TTGGACACGTGGTATA,0.02
21,GTTTTCACGTGTAAGC,0.33
